Read counts are not given, so values of variants with three or more changes are uncertain.
B1: LINE1-full (parent)
chain: UACGUAGGUGGUUUUCCCCUGAUAGUGCUAAGGGGGCCUGGAAGUUUGGACUGGGCAGAGCUCAACACAGCGUGGCAAAGUGGCUGUGGCUAGACUGCCUCUCUGGAUUCCUCGUCACUCAGCAGGGCAUCUCUGAGAGAAAUGCC

Variants of: B1
Experiment: self-cleavage, relative activity (ratio to wild type); higher = more cleavage; in vitro, sequencing; the parent is a self-cleaving ribozyme

Variant	self-cleavage
U9A A78U A107G	1.68
U9C U13A A31U U100C	1.47
G7U A65G G125U	0.09
G8A A50U U115A	1.11
U9C A67G C68A A77G	0.15
U9C A42U G60U	0.08
U9A C71U C113U	0.58
U9A A69U U143C	0.13
U9A U23C U52A U109C	1.39
U9C G10A A94G U104C	0.54
U9A U13A U119C	0.73
U9A U13C C98U C123A	0.52
U9C A57G U132C A138U	1.78
U9A C19U A77G U119G	0.95
U9A A117U U143C	0.54
G7U G60A U91C A136G	0
U9A A22G G88A	0.28
G7U G35A U143A	1.1
G8A U15C U73C A77G A138G	2.83
U9A A42G A57C	0
G7C U134G C145U	2.66
U9A U26A U45C	0.84
U9C U13A A57G C66U U81A U102A	0.1
U9C C71U A117G	0.96

Variant	self-cleavage
G7U C16U A77G U130C A142U	1.82
G7U U39C A64C A67G	0
U9A U13G A77G A140G	0.54
G7C U87C C118U	0.19
U9A A94G G114A	0.26
U9C G72A C98U A124U	0.49
U9A U39C A59G	0.21
U9A U23C G54A A94U A117G	0.44
U9A U20C A43C C131A A138G	0.38
U9C A77U A78U A92U	0.76
U9A A42G A50U A94G U109C	0
U9A A67G U132C	0.81
U9C U14C U20A U26C	1.49
G8A U9C U15C A24U A67C U81A U87A U115C	0.27
U9A A65G A77U	0.16
U9A G34A A107G A121G	0.54
U9C A50G A141G	1.43
U9A A65U A138G	0.26
U9C G44U A140G	1.94
U9A U26A G35U	1.4
U9A U104A A140G	0.22
U9C G11U A121G	1.51
U9A U81A U132C	1.89
U9C G25U U115A	1.33

Variant	self-cleavage
U9A U20C U39C A77G A129U A142G	2.08
G7C U13C G86A U115A	0.28
U9A A42G G106U	1.01
U9A A42G G106C	0.68
U9C A67G U100C	1.75
U9C A42G C51U U112C A141U	1.83
U9C A64U A79U	0.9
U9A A22G A57U U104A	0
U9A C68A A124G G135A A138G	0.18
U9A G36C A77U U100C A121U	1.59
U9A U52C A77G U100C	1.31
G7U A69G U102C U132C	0.33
U9A U13C G21A U73C	0
G8A A43G A64G A65U A142G	0
U9C A94G U102C	0.38
G8A G48A G82A	1.89
G8A U39G U45C U104G A117U A142G	0
U9C A77U A136G	0.89
G7C A94G A140C	0.92
U9A U29A G32U A64G	0.57
U9C G55U C110U	0.57
U9A U39C G58A C145A	0.09
G8A A43G U47C A124U A136U	0.95
G7U A42G U102C A140G	2.1

Variant	self-cleavage
U9C A24G U26A A65U A121G	0.54
G7U G36C U45C U102C A138U	1.19
G7C U12G A22G U73C	0.48
U9A U13C A129U	0.61
U9A U104A A117U A121U	1.38
U9C C17U A50G A136G	1.17
U9C U12A U39C A79G A117U A138G	1.15
U9C A30G C76G A129G	2.27
G8A A42G A67U	0.18
U9C C38A A77U A79G	1.65
G8A G27A G35A U115A	0.97
U9A U20A U96G A107U U109C	0
U9A A64G G72A A117G U132A	0.16
U9A A79G U96C U134C	0
U9A C38U A69G U87A	0.12
U9A U14C U20A U81C	0.77
G7U U15G A94G U100A	0.26
U9A A57U A138G U143A	0.22
U9C U14C A69U A92G A136G	0.33
U9C A50G U91C C146U	1.15
U9A U20C A42G C68A U85C	0.11
U9C U13C A59G A65G	0
U9C G53U A64U U143C	0.61
U9A U45C A67U	0.15

Variant	self-cleavage
U9A A57U A136G	0.07
U9A A67U U81G C118A A140G A141G	0.12
U9C C99U U100G U130C	0.25
U9A U13C A57G U62A U81C	0
U9A A57U U62C A94G U108C C113U A140G C145U	0
U9C A42G U100A A117G	0
U9C C28U A50U	1.01
G7U A59U A64U C113A A124U	0.16
U9C U13C A42G A67G G74U	0.61
U9A U15C U102C	1.26
U9C A22G C38U A69G U102C A124G	1.02
U9A A31G A77U A92C	0.3
U9A U47A A64G A107G	0.31
U9C U14C A69G A77G U96A U115A	0
U9A U104C G135A	1.67
U9A U20C A50G U62C A79U	0.19
G7A U62C A138G	0.02
U9A U102A U130C	1.78
U9A A30G G32C	1.8
U9C G10U A59U C71U	0.09
G7A U39A A77G	2.97
G7U U20A A69C U115A A141G C145U	0.05
U9A U62C U73A	0.03
U9A U52C A59G A78C	0

Variant	self-cleavage
U9A C19U A50G A79G	0.75
U9C U14C A57U A64U C76U A92C A117G	0.14
U9C G21U U108A	1.81
U9A U15C U39A	0.77
U9A U45C A69U U102C	0.33
U9C A142G C146A	0.9
G8C A94U U115C	0.8
U9A A22G A30G C51U A57U	0.42
U9A U45C A65C U100C U130A	0
U9A A30G A78G U109C	0.84
U9C A65G A79U	0.34
G8A U81A A107G U134A	1.63
U9A G74A U81A A136G	1.11
U9A U100C U109C	1.15
G7U A69G A107G	0.84
U9A A24U U45G U46C A78U	1.7
U9C G10A U132C U134C A140G	1.97
U9A U14C U73C U143A	2.45
U9C A121G A141G	1.61
U9C G89U U102G	0.04
U9A A67G A142U	1.06
U9A A22U U134C	1.07
U9A U15A G34A A94G U104C	0.13
G7U U12C A22G U112C	0.85

Variant	self-cleavage
U9C A121U A140G	1.16
G8U U104C C110U	1.41
G8A U45G A140U	1.72
U9C U12C U13C U134A	1.95
U9C A64G U104A	0.69
U9A U12A U115A U119C G137U	0.44
G8A G21A G32C A124G U143C	0.45
G7C A77U A78G	0.92
G8C G35A U39C U73A A141G	0.43
G7A U87C U104C A141G	0.29
U9A C51U G125U	1.9
U9A U108C A117G U134C U143A	0
U9A A24U U143A	0.72
U9C G32U A50G A78G C133A	0.91
G8A U14C A50C C71A	0.26
U9A G34U A43G A92G	0.2
G8C U20C A59G U100C	0
G8U U62C U85C A94G	0
U9A A57G A69G A121G	0
G8A U14C U134A	0.97
U9C G35A U115C U130A	1.1
U9C A43G A59G A64G	0
G7U A59G U100A A140G	0.2

Source: the RNAGym collection of RNA variant scans (doi:10.7554/elife.90254)
